PubChem BioAssay AID504339 (National Center for Advancing Translational Sciences (NCATS), 2011)
Among all 390,000 compounds or so, about 17,000 (4.4%) were called active. Inconclusive means that the source gave no clear call. Such entries were picked first, then a sample of the others. Calls come from the whole dose curve; as a rule, active = well fitted inhibition curve with a large enough effect; inconclusive = small, poorly fitted or top-dose-only effect; inactive = no such curve, though single readings can be large or run the other way. Potencies beside an inconclusive call are fits to weak or partial responses and may not hold up.

target: Lysine-specific demethylase 4A (Homo sapiens) (UniProt O75164); experiment: qHTS Assay for Inhibitors of JMJD2A-Tudor Domain; conditions: AlphaScreen JMJD2A-Tudor / H3K4me3 peptide binding; series mostly up to 114 µM; note: nearly all actives have a fitted effect of over 50% in size
Potency is the fitted concentration of half-maximal effect; tags give direction and shape of the fitted curve.

Sequence of UniProt O75164 (O75164 whole entry, looked up, the tested form may be a part): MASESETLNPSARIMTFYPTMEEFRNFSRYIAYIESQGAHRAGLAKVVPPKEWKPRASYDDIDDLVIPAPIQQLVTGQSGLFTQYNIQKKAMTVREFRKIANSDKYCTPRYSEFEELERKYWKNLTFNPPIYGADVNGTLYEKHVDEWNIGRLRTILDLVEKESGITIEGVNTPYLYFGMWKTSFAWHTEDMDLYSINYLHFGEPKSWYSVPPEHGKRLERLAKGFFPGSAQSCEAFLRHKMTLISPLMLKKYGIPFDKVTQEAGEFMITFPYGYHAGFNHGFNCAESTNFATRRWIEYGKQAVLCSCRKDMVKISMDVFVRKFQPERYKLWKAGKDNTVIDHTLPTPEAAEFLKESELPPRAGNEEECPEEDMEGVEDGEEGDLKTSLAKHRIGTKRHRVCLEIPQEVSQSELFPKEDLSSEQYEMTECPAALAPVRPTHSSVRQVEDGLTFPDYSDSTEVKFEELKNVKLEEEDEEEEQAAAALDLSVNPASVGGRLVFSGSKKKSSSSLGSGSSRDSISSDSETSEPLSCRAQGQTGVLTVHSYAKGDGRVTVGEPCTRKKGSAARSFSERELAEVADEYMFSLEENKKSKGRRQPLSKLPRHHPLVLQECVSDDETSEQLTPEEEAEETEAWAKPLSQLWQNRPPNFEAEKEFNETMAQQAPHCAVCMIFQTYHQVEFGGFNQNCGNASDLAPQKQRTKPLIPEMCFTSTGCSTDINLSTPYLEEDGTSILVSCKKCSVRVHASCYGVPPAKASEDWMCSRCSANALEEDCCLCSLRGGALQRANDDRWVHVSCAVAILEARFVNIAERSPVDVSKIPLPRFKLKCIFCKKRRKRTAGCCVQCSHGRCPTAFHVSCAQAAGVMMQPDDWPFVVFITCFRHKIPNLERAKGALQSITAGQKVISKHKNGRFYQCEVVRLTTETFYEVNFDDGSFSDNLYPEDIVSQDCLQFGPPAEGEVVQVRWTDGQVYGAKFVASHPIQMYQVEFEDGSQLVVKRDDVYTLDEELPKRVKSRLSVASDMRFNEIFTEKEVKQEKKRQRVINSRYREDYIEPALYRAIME

SMILES	Potency
Cc1ccc(Cc2c(C)nc3nc(SCC(=O)NC4CCC(C)CC4)nn3c2C)cc1 (stereo not given)	inconclusive: 70.8 µM [inhibitor, partial curve, poor fit]
O=C(N/N=C/c1cn(CC(=O)N2CCOCC2)c2ccccc12)c1cccnc1	inconclusive: 22.4 µM [inhibitor, partial curve]
COc1ccc(O)c(C(=O)CC(=O)c2ccccc2C)c1	inconclusive: 89.1 µM [inhibitor, partial curve]
Cc1cccc(-c2cnn(-c3cccc([N+](=O)[O-])c3)c2N)c1	inconclusive: 50.1 µM [inhibitor, partial curve]
COc1ccc(-c2cn(-c3ccc(C)cc3)c(S(=O)(=O)CC(=O)Nc3ccc(F)cc3)n2)cc1	inconclusive: 39.8 µM [inhibitor, full curve, poor fit]
S=C1NC2=C(CCC/C2=C\c2ccccc2)C(c2ccccc2)N1 (stereo not given)	inconclusive: 70.8 µM [inhibitor, partial curve]
CCOc1ccc(CCNC(=O)c2cc3c(=O)oc4ccc(C)cc4c3s2)cc1OCC	inconclusive: 3.55 µM [inhibitor, single point]
Cc1cccc(CSc2ncc(Cl)c(C(=O)Nc3sc4c(c3C(N)=O)CCCC4)n2)c1	inactive
CCn1c(CCc2ccccc2)n[nH]c1=S	active: 3.55 µM
COc1ccc(-c2cc(C(F)(F)F)c3c(=O)n(-c4ccccc4)[nH]c3n2)cc1	active: 56.2 µM
O=C1NC(=S)S/C1=C/c1ccc(OC(=O)c2ccco2)cc1	inconclusive: 44.7 µM [inhibitor, partial curve]
COc1ccc(CCNc2ccc(N3C(=O)CC(C)C3=O)cc2[N+](=O)[O-])cc1OC (stereo not given)	inconclusive: 56.2 µM [inhibitor, partial curve]
CCn1c(SCC(=O)c2ccccc2)nnc1-c1ccoc1C	inactive
COc1ccc([N+](=O)[O-])cc1N(CC(=O)N1CCN(Cc2ccccc2)CC1)S(C)(=O)=O	inconclusive: 22.4 µM [inhibitor, full curve]
Cc1cccc(NC(=S)N/N=C2\CC(C)(C)Oc3ccc(O)cc32)c1	inconclusive: 70.8 µM [inhibitor, single point]
Cc1ccc(NC(=O)C2C(c3ccccc3)C2(Cl)Cl)c(C)c1 (stereo not given)	inconclusive: 39.8 µM [inhibitor, single point]
Cc1cc(C)c(C)c(S(=O)(=O)N2CCCN(C)CC2)c1C	inactive
CC(Oc1ccccc1)C(=O)NNS(=O)(=O)c1ccc([N+](=O)[O-])cc1 (stereo not given)	inconclusive: 17.8 µM [inhibitor, partial curve]
O=C(CN1CCN(c2ccc(O)cc2)CC1)Nc1ccc2c(c1)OCCCO2	inconclusive: 56.2 µM [inhibitor, partial curve]
COc1ccccc1N(CC(=O)NCc1ccccc1C)S(=O)(=O)c1ccc(C)cc1	inconclusive: 100 µM [inhibitor, single point]
CC(NC(=O)CSc1ncccn1)c1ccccc1 (stereo not given)	inactive
CCc1c(C)c2ccc(O)c(CN3CCCC3)c2oc1=O	inconclusive: 28.2 µM [inhibitor, partial curve]

SMILES	Potency
CCC(C)NC(=O)C1CCC(CNS(=O)(=O)c2ccc3c(c2)N(C(C)=O)CCO3)CC1 (stereo not given)	inconclusive: 12.6 µM [inhibitor, full curve, poor fit]
CCOc1ccc(CNC(=O)C2Cc3ccccc3N2C(=O)CC)cc1OC (stereo not given)	inactive
Cc1ccc(NCc2nc3ccccc3n2C)cc1	inconclusive: 79.4 µM [inhibitor, partial curve]
COc1ccc(OC)c(CNC(=O)c2ccc(Sc3ccc(C)cc3)c(N)c2)c1	inconclusive: 44.7 µM [inhibitor, partial curve]
CCc1ccc(-n2nc(C)c3c(C)cc(=O)n(Cc4nc(-c5ccccc5)oc4C)c32)cc1	inactive
COC(=O)c1[nH]c(C)c(/C(O)=C2\C(=O)C(=O)N(CCN(C)C)C2c2cc(OC)ccc2OC)c1C (stereo not given)	inconclusive: 39.8 µM [inhibitor, single point]
COc1cccc(NC(=O)CCC2CCN(C(=O)c3cccc(NC(C)=O)c3)CC2)c1	inactive
C[C@H](O)[C@@H]1C(=O)N2CCc3ccc(-c4ccccc4)cc3[C@@H]2C[C@@H]1N(C)C(=O)c1ccc(C#N)cc1	inconclusive: 89.1 µM [inhibitor, partial curve, poor fit]
CCCc1nnc(NC(=O)CCC(=O)NCc2ccc(Cl)cc2Cl)s1	inconclusive: 25.1 µM [inhibitor, full curve, poor fit]
C#CCOCCOCCOCCNc1nc(N2CCN(C(=O)CCCCCCCCCCNC(=O)[C@H](CCCCN)n3cc(C)nn3)CC2)nc(N2CCN(C(=O)CCCCCCCCCCNC(=O)[C@H](CO)n3cc(CCCSC)nn3)CC2)n1	active: 56.2 µM
CCc1ccccc1N1CC(C(=O)Nc2cc(S(=O)(=O)N3CCCC3)ccc2Cl)CC1=O (stereo not given)	inconclusive: 50.1 µM [inhibitor, partial curve]
Cc1ccc(CNC(=O)C2CC(=O)OC23CCCC3)c(C)c1 (stereo not given)	inconclusive: 44.7 µM [inhibitor, partial curve]
Cc1ccccc1NCc1ccccc1O	inconclusive: 79.4 µM [inhibitor, partial curve]
CC1CCN(CCCNC(=O)C2CCN(S(=O)(=O)N3CCCCC3)CC2)CC1	inconclusive: 100 µM [inhibitor, single point]
Cc1nc(N2CCN(C(=O)c3ccco3)CC2)c2c3c(sc2n1)CC(C)CC3 (stereo not given)	inconclusive: 63.1 µM [inhibitor, partial curve, poor fit]
Cc1c(/C=N\NC(=O)C2COc3ccccc3O2)c2ccccc2n1C (stereo not given)	inconclusive: 79.4 µM [inhibitor, single point]
CCOC(=O)C1CCCN(C(=O)c2ccc(-c3ccc([N+](=O)[O-])cc3)o2)C1 (stereo not given)	inconclusive: 39.8 µM [inhibitor, full curve, poor fit]
CCCCN(C)CCCNC(=O)Cn1ncc2c3ccccc3n(Cc3ccccc3)c2c1=O	inactive
COc1ccc(N2CC(O)=C(c3nc4ccccc4s3)C2=N)c(OC)c1	inconclusive: 25.1 µM [inhibitor, full curve, poor fit]
Cc1cc(C)cc(OCC(=O)Nc2c(C)ccc3nsnc23)c1	inactive
N#CC1=C(N)Oc2n[nH]c(-c3cccnc3)c2C1c1ccc([N+](=O)[O-])o1 (stereo not given)	inconclusive: 50.1 µM [inhibitor, partial curve]
COc1ccc(C2/C=C\CN(C(=O)C3CC3)C(Cc3ccccc3)C(=O)N2Cc2ccc(F)cc2)cc1 (stereo not given)	inactive

SMILES	Potency
N=C1N(c2ccccc2)C(=S)C(=Nc2ccccc2)N1c1ccccc1	active: 25.1 µM
O=C1c2ccccc2NC(c2cnc3ccccc3n2)N1O (stereo not given)	inconclusive: 89.1 µM [inhibitor, single point]
c1nc(NCCCN2CCCCC2)c2cc(-c3ccc4c(c3)OCO4)ccc2n1	inconclusive: 56.2 µM [inhibitor, partial curve]
CSc1ccc(OC2CCN(Cc3ccccc3)CC2)cc1	inconclusive: 56.2 µM [inhibitor, partial curve]
O=c1[nH]c(Nc2ccccn2)cc2ccccc12	inactive
COc1ccc(N2CCN(c3ncnc4c3[nH]c3ccccc34)CC2)cc1	active: 50.1 µM
Cc1cc(Cl)c(OCCCN(C)C)c(Br)c1	active: 8.91 µM
CN1C(=O)N(CC(=O)N2CCN(S(=O)(=O)c3ccc(Cl)s3)CC2)C(=O)C12CCCCC2	inactive
CN(C)c1ccc(NC(=O)CSc2nnc(-c3ccco3)c(-c3ccco3)n2)cc1	inconclusive: 15.8 µM [inhibitor, full curve, poor fit]
CCCC[n+]1ccn(-c2nc3ccccc3nc2[N-]S(=O)(=O)c2ccc(Cl)cc2)c1	inconclusive: 79.4 µM [inhibitor, single point]
Cc1csc(Nc2ccc(Cl)cc2)[n+]1-c1ccc(Cl)cc1	active: 14.1 µM
CN1C(=CC=C2C=C(I)C(=O)C(I)=C2)C(C)(C)c2ccccc21	inconclusive: 2.82 µM [inhibitor, full curve]
COc1ccccc1N1CCN(/N=C/c2cccc(OC)c2O)CC1	inconclusive: 50.1 µM [inhibitor, partial curve]
Cc1ccc(C(=O)NC(=S)NNC(=O)CC#N)cc1	inconclusive: 17.8 µM [inhibitor, partial curve]
CC1CCN(C(=O)c2[nH]cnc2C(=O)N[C@@H](C)C(=O)OC(C)(C)C)CC1	inconclusive: 70.8 µM [inhibitor, partial curve, poor fit]
CCN(CC)c1ccc(C(=S)NC2CCCCC2)cc1	inconclusive: 31.6 µM [inhibitor, partial curve]
Cc1ccc(S(=O)(=O)SC/C=C/CSS(=O)(=O)c2ccc(C)cc2)cc1	active: 3.16 µM
O=S1(=O)CCN(c2ccccc2CC(c2c[nH]c3ccccc23)c2c[nH]c3ccccc23)CC1	inconclusive: 15.8 µM [inhibitor, full curve]
COc1ccc(NS(=O)(=O)c2ccc(NC(=S)NC(=O)/C=C/c3ccccc3)cc2)nn1	inactive
COc1ccc(S(=O)(=O)Nc2cccc(-c3ccc(N4CCC(C)CC4)nn3)c2)cc1OC	inactive
CCOc1ccc(OCCC(=O)OCC(=O)Nc2cc(S(=O)(=O)N3CCOCC3)ccc2OC)cc1	inconclusive: 89.1 µM [inhibitor, partial curve]
